The target in this experiment is human ILT4 haplotype 5 expressed on mouse 3A9 T cells (human), Q8N423. The experiment can be described thus: cell-based or functional assay.
Chain of human ILT4 haplotype 5 expressed on mouse 3A9 T cells (human), Q8N423 (Q8N423 other isoform, or with tags, fused parts or gaps): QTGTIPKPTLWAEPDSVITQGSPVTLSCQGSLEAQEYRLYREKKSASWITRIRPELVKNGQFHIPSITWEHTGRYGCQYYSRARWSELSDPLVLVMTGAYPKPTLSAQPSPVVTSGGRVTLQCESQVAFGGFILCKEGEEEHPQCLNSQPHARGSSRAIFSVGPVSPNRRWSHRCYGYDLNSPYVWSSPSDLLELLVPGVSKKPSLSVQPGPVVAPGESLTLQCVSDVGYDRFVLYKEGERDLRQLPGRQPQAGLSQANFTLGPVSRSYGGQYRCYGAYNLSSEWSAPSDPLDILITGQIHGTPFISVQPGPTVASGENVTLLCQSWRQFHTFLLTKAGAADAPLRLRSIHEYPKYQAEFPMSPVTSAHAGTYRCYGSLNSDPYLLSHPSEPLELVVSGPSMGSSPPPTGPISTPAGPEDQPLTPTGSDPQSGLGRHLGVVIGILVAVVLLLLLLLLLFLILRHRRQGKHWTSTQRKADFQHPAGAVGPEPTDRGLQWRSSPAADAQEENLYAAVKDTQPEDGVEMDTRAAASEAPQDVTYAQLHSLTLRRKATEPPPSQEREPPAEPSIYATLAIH

B1: 2A6 (antibody)
heavy: EVQLVQSGAEVKKPGSSVKVSCKASGGTFSSYAISWVRQAPGQGLEWMGGIIPIFGTANYAQKFQGRVTITADESTSTAYMELSSLRSEDTAVYYCARYFDSSGWYKGGAFDIWGQGTMVTVSSASTKGPSVFPLAPCSRSTSESTAALGCLVKDYFPEPVTVSWNSGALTSGVHTFPAVLQSSGLYSLSSVVTVPSSSLGTKTYTCNVDHKPSNTKVDKRV[human IgG4 Fc with S228P (EU numbers) not spelt out]
light: QSVLTQPSSLSASPGASASLTCTLRSGINVDTYRIHWYQQKPGSPPQYLLRYKSDSDKHQGSGVPSRFSGSKDPSANAGILLISGLQSEDEADYYCAIWYSSTWVFGGGTQLTVLGQPKAAPSVTLFPPSSEELQANKATLVCLISDFYPGAVTVAWKADSSPVKAGVETTTPSKQSNNKYAASSYLSLTPEQWKSHRSYSCQVTHEGSTVEKTVAPTECS
Molecule B1 registered an EC50 (IL-2 Repression Assay: rescue of IL-2 release from anti-CD3 stimulated ILT4 3A9 T cell transfectants, ELISA) of 1.2 µg/mL.

B2: 2C1 (antibody)
heavy: EVQLVQSGAEVKKPGASVKVSCKVSGYTLTELSMHWVRQAPGKGLEWMGGFDPEDGETIYAQKFQGRVTMTEDTSTDTAYMELSSLRSEDTAVYYCARAGPLYTIFGVVIIPDNWFDPWGQGTLVTVSSASTKGPSVFPLAPCSRSTSESTAALGCLVKDYFPEPVTVSWNSGALTSGVHTFPAVLQSSGLYSLSSVVTVPSSSLGTKTYTCNVDHKPSNTKVDKRV[human IgG4 Fc with S228P (EU numbers) not spelt out]
light: ESVLTQPPSVSGAPGQRVTISCTGSSSNIGAGYDVHWYQQLPGTAPKLLIYGNSNRPSGVPDRFSGSKSGTSASLAITGLQAEDEADYYCQSYDSSLSGSGVVFGGGTQLIILGQPKAAPSVTLFPPSSEELQANKATLVCLISDFYPGAVTVAWKADSSPVKAGVETTTPSKQSNNKYAASSYLSLTPEQWKSHRSYSCQVTHEGSTVEKTVAPTECS
In turn, B2 gave an EC50 (IL-2 Repression Assay: rescue of IL-2 release from anti-CD3 stimulated ILT4 3A9 T cell transfectants, ELISA) of 0.24 µg/mL.
